Screen size: about 310,000 compounds; about 18,000 (5.8%) were called active. The inconclusive results got no clear call from the source; some entries with a clear call stand among them for comparison. Calls come from the whole dose curve; as a rule, active = well fitted inhibition curve with a large enough effect; inconclusive = small, poorly fitted or top-dose-only effect, or another doubt; inactive = no such curve, though single readings can be large or run the other way. Potencies of inconclusive entries are left out as doubtful fits.
Experiment: Primary qHTS for delayed death inhibitors of the malarial parasite plastid, 48 hour incubation
Details: P. falciparum luciferase growth in erythrocytes; series mostly up to 28.7 µM; activity change, negative = inhibition: at the top concentration
In short: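 First compound was added to culture medium, then infected red cells at 0.1% parasitemia and 2% hematocrit (final). After incubation at 37 C under 5% CO2, luciferase detection reagent was dispensed and light output recorded.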
% is set by controls: 0 for no effect and ±100 for the full control effect; potency is the fitted concentration of half-maximal effect; tags give direction and shape of the fitted curve.

| Structure (SMILES) | Potency | activity change, negative = inhibition |
| --- | --- | --- |
| Cc1ccccc1NS(=O)(=O)c1ccc(C(=O)N2CCN(c3ccccc3O)CC2)cc1 | active: 13.1 µM |  |
| COc1cccc(N(C(=O)c2ccco2)C(C(=O)NC2CCCC2)c2ccc(N3CCOCC3)cc2)c1 (stereo not drawn) | inconclusive [inhibitor, partial curve, poor fit] |  |
| CN(C)S(=O)(=O)c1cccc(C(=O)Nc2ccc(N3CCOCC3)cc2)c1 |  | inactive: 1.39% |
| O=C(CC1SC(N2CCCCC2)=NC1=O)Nc1ccc(C(=O)Nc2ccccc2)cc1 (stereo not drawn) | inconclusive [inhibitor, single point] |  |
| Cc1nc(C)c(CC(=O)N2CCc3c([nH]c4ccccc34)C2c2ccccn2)s1 (stereo not drawn) | inconclusive [inhibitor, partial curve, poor fit] |  |
| c1ccc(-n2ncc3c(N4CCN(c5ccccn5)CC4)nc(N4CCCCC4)nc32)cc1 |  | inactive: 16.2% |
| Cc1cccc(NC(=O)C2CCCN(S(=O)(=O)c3ccc4c(c3)oc(=O)n4C)C2)c1 (stereo not drawn) | inconclusive [inhibitor, partial curve, poor fit] |  |
| Cc1ccc(Cl)cc1N(C)C(=O)Cn1ncc2c([nH]c3ccccc32)c1=O | inconclusive [inhibitor, partial curve] |  |
| O=c1ccc(S(=O)(=O)N2CCCC2)cn1Cc1ccc(Cl)cc1Cl | inconclusive [inhibitor, single point] |  |
| N#CC1(NC(=O)COC(=O)c2cc(O)c3ccccc3c2O)CCCCC1 | inconclusive [inhibitor, partial curve, poor fit] |  |
| Cc1ccc(C2CC(C(F)(F)F)n3nc(C(=O)NCc4c(C)nn(C)c4C)c(Cl)c3N2)cc1 (stereo not drawn) | inconclusive [inhibitor, single point] |  |
| Nc1c(C(=O)Nc2ccc3c(c2)OCCO3)nnn1Cc1ccc(Br)cc1 |  | inactive: 200% |
| Cc1ccc(C(=O)N/N=C\c2ccncc2)s1 |  | inactive: 47.3% |
| Cc1ccc(NC(=O)CCn2c(=O)c3cccn3c3ccccc32)c(C)c1 | inconclusive [inhibitor, single point] |  |
| CCOc1ccc(S(=O)(=O)NCCC(=O)NCC2(N3CCCCC3)CCCCC2)cc1 |  | inactive: -4.63% |
| COc1ccc(NS(=O)(=O)c2cc3c4c(c2)CCN4C(=O)CC3)cc1OC | inconclusive [inhibitor, single point] |  |
| C=CCOC(=O)Cn1cnc2c(sc3nc(C)cc(C)c32)c1=O | inconclusive [inhibitor, full curve, poor fit] |  |
| Cn1c(=O)c2ccccc2n2c(CCl)nnc12 | inconclusive [inhibitor, partial curve] |  |
| Cc1ccc(C)c(N(CC(=O)NCc2ccco2)C(=O)CNS(=O)(=O)c2ccccc2)c1 |  | inactive: -15.5% |
| Cc1cccn2c(=O)nc(SCC(=O)c3ccc(Cl)cc3)nc12 | inconclusive [inhibitor, single point] |  |
| C/C(=N\Nc1nc(N2CCOCC2)nc(N2CCOCC2)n1)c1cccc([N+](=O)[O-])c1 | active: 10.4 µM |  |
| NC(=S)Nc1cccc2cn[nH]c12 |  | inactive: 53.3% |
| O=C(NN=C1C2CC3CC(C2)CC1C3)c1ccccc1O | inconclusive [inhibitor, single point] |  |

| Structure (SMILES) | Potency | activity change, negative = inhibition |
| --- | --- | --- |
| CS(=O)(=O)N(CC(=O)NC1CCCCC1)Cc1ccc(F)cc1 |  | inactive: -1.76% |
| CC(=O)Nc1nonc1NC(=O)CSC1=NCCS1 |  | inactive: -4.42% |
| COc1ccccc1CN1C(=O)[C@@H]2C(CCC(N)=O)NC3(C(=O)Nc4c3ccc(Cl)c4C)[C@@H]2C1=O (stereo partly drawn) | inconclusive [inhibitor, single point] |  |
| Cc1cc(NC(=O)CSc2ccc3nnc(-c4cccc(F)c4)n3n2)no1 | active: 1.85 µM |  |
| COCCN(C(=O)CSc1nc2ccccc2c(=O)n1CC(C)C)c1c(N)n(Cc2ccccc2)c(=O)[nH]c1=O | active: 10.4 µM |  |
| O=C(COc1ccc(Cl)cc1)OCCNC12CC3CC(CC(C3)C1)C2 |  | inactive: -10.7% |
| CC(=O)c1ccc(N2CCN(C(=O)C3CCN(S(=O)(=O)c4cccs4)CC3)CC2)cc1 | inconclusive [inhibitor, partial curve] |  |
| COc1ccc(C2c3c4c(n(C)c3CCN2C)CCN(C)C4c2ccc(OC)cc2)cc1 (stereo not drawn) | inconclusive [inhibitor, full curve, poor fit] |  |
| Cc1ccccc1NC(=O)c1cccnc1 |  | inactive: 27.5% |
| O=C(O)CCNC(=O)/C(=C\c1ccco1)NC(=O)c1ccco1 |  | inactive: 3.16% |
| O=c1cc(-c2ccccc2)[nH]n1-c1ccc([N+](=O)[O-])cc1 | inconclusive [inhibitor, single point] |  |
| O=C(N/N=C/c1cc([N+](=O)[O-])ccc1N1CCNCC1)c1ccc([N+](=O)[O-])cc1 | inconclusive [inhibitor, full curve, poor fit] |  |
| COc1ccccc1-c1nnc2sc(COc3ccc(Cl)cc3Cl)nn12 | inconclusive [inhibitor, partial curve, poor fit] |  |
| CCN(C1CCCCC1)S(=O)(=O)c1ccc(C(=O)O)cc1 |  | inactive: 35.8% |
| Cc1ccc(CNC(=O)c2ccc(N3CCC4(CC3)CC(c3ccccc3)=NO4)c([N+](=O)[O-])c2)cc1 | inconclusive [inhibitor, partial curve, poor fit] |  |
| O=C(OCc1cnc(Cl)s1)c1cccc(Cl)c1Cl |  | inactive: 13.2% |
| O=C(Nc1cc(Cl)ccc1-n1cncn1)c1ccc([N+](=O)[O-])o1 | inconclusive [inhibitor, partial curve, poor fit] |  |
| CCc1cccc(NS(=O)(=O)c2ccc3c(c2)N(C)CCO3)c1 |  | inactive: -2% |
| CC(=O)c1cccc(S(=O)(=O)N2CCn3cccc3C2C)c1 (stereo not drawn) | inconclusive [inhibitor, single point] |  |
| O=C(c1ccc2c(c1)N(Cc1ccc(F)cc1)C(=O)c1ccccc1S2(=O)=O)N1CCN(c2ccccn2)CC1 | inconclusive [inhibitor, partial curve] |  |
| CC(=O)c1ccc(NC(=S)NCC(c2ccco2)N2CCCC2)cc1 (stereo not drawn) | inconclusive [inhibitor, single point] |  |
| CCOc1ccc(NC(=O)CCN2C(=O)c3ccccc3C2=O)cc1 |  | inactive: 6.27% |
| O=C(Nc1ccc(S(=O)(=O)N2CCCC2)cc1)C1CC(=O)N(CCc2ccc(F)cc2)C1 (stereo not drawn) | inconclusive [inhibitor, partial curve] |  |

| Structure (SMILES) | Potency | activity change, negative = inhibition |
| --- | --- | --- |
| Cc1c(O)ccc(/C=N/Nc2nc(-c3cccnc3)nc3ccccc23)c1O | inconclusive [inhibitor, single point] |  |
| O=C(O)c1cccc(-n2c(/C=C/c3ccc([N+](=O)[O-])cc3)nc3ccccc3c2=O)c1 | inconclusive [inhibitor, single point] |  |
| O=c1[nH]c(CSc2cccc[n+]2[O-])nc2ccccc12 | active: 13.1 µM |  |
| CCN(Cc1cnn(C)c1)Cc1nc(C2(c3ccc(C)cc3)CCCC2)no1 | inconclusive [inhibitor, single point] |  |
| Cc1c(C(=O)NC2CCC(C)CC2)oc2ccccc12 (stereo not drawn) |  | inactive: 97% |
| Cc1cn(C2OC(COC(=O)c3ccccc3)C(OC(=O)c3ccccc3)C2OC(=O)c2ccccc2)c(=O)[nH]c1=O (stereo not drawn) | inconclusive [inhibitor, single point] |  |
| CCOc1ccc(S(=O)(=O)NCc2ccccn2)c(C)c1C | inconclusive [inhibitor, full curve, poor fit] |  |
| O=[N+]([O-])c1ccc(C[n+]2cccc3c4ccccc4ccc32)cc1 |  | inactive: 13.9% |
| Cn1c(-c2ccccc2)cnc1N | inconclusive [inhibitor, full curve, poor fit] |  |
| Nc1nonc1-n1nnc(C(=O)N/N=C/c2ccc(OCc3ccccc3)cc2)c1COc1ccc(F)cc1 | inconclusive [inhibitor, partial curve, poor fit] |  |
| CCCc1cc(=O)[nH]c(SCC(=O)N2CCc3ccccc3C2)n1 | inconclusive [inhibitor, single point] |  |
| CCC(C)(C)C1CCC2(CC1)NC(=O)N(CC(=O)N(C)Cc1ccc3c(c1)OCCO3)C2=O (stereo not drawn) | inconclusive [inhibitor, single point] |  |
| COc1ccc([C@H]2CC(=O)C=C(c3cc(C=O)ccc3OC)C2)cc1 | inconclusive [inhibitor, single point] |  |
| O=C(c1ccc2c3c(cccc13)CC2)C1CCCN(Cc2ccccn2)C1 (stereo not drawn) | active: 2.33 µM |  |
| O=[N+]([O-])c1ccc(S(=O)(=O)Nc2ccc(-c3ccc(N4CCCC4)nn3)cc2)cc1 | inconclusive [inhibitor, single point] |  |
| COc1ccc(Cn2nnnc2C(c2ccc(C)cc2)N2CCN(C3CCCC3)CC2)cc1 (stereo not drawn) | inconclusive [inhibitor, single point] |  |
| CCc1ccc2c(CC(=O)NNC(=O)c3ccncc3)coc2c1 |  | inactive: -7.69% |
| O=C(CSc1nc2c([nH]c3ccccc32)c(=O)n1-c1ccc(F)cc1)NCc1ccco1 | inconclusive [inhibitor, partial curve, poor fit] |  |
| O=C(N/N=C1\C/C(=N\NC(=O)c2ccncc2)c2ccccc21)c1ccncc1 | inconclusive [inhibitor, partial curve, poor fit] |  |
| CS(=O)(=O)N1CCN(C(=O)c2ccc(Cl)s2)CC1 |  | inactive: 0% |
| C/C(=N\NC(=O)C(O)c1ccccc1)c1ccc(Br)s1 (stereo not drawn) |  | inactive: -11.7% |
| Cc1ccc(C(=O)NNC(=O)c2ccccc2O)cc1S(=O)(=O)N1CCCCC1 | inconclusive [inhibitor, single point] |  |
